According to the supplement of paper PMC6089552:
Screen size: about 3,200 compounds; about 300 (9.4%) showed activity. This is a selection; strong and weak results do not stand in their true shares.

System: A673/TR/shEF
Assay: cell viability (LOESS-normalised, relative to median of negative controls) (log2 ratio); higher = more viable cells (less compound effect), active = hit call of the paper (over 3 MAD below the median)
Settings: treatment time: 72 h
In short: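 For three days, A673/TR/shEF Ewing sarcoma cells in 384-well plates (1,500 per well) were treated with library compounds at two or more concentrations or with DMSO controls, after doxycycline had been added or withheld 24 h beforehand to induce EWS-FLI1 shRNA knockdown. Viability was read by CellTiter-Glo luminescence on an Envision reader. The data were LOESS-corrected per plate, divided by the median of negative controls and log2-transformed.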

[1] = 0.25 µM, library screen: screen1, EWS-FLI1 expression: high (no doxycycline)
[2] = 0.25 µM, library screen: screen1, EWS-FLI1 expression: low (doxycycline-induced shRNA knockdown)
[3] = 2.5 µM, library screen: screen1, EWS-FLI1 expression: high (no doxycycline)
[4] = 2.5 µM, library screen: screen1, EWS-FLI1 expression: low (doxycycline-induced shRNA knockdown)
[5] = 0.25 µM, library screen: screen2, EWS-FLI1 expression: high (no doxycycline)
[6] = 0.25 µM, library screen: screen2, EWS-FLI1 expression: low (doxycycline-induced shRNA knockdown)
[7] = 2.5 µM, library screen: screen2, EWS-FLI1 expression: high (no doxycycline)
[8] = 2.5 µM, library screen: screen2, EWS-FLI1 expression: low (doxycycline-induced shRNA knockdown)
[9] = 25 µM, library screen: screen1, EWS-FLI1 expression: high (no doxycycline)

Measured: cell viability (log2)

CC(C)(C#N)O[C@@H]1O[C@H](CO)[C@@H](O)[C@H](O)[C@H]1O
inactive: [1] 0.0597 | [2] 0.0616 | [3] 0.164 | [4] -0.0392

COc1cc(C(O)CN)ccc1O (centres undefined)
inactive: [5] 0.137 | [6] 0.137 | [7] 0.0316 | [8] 0.00185

N#CC(C#N)=Cc1cc(O)c(O)c([N+](=O)[O-])c1
active: [3] -0.167 | [9] -0.153

C[C@@H]1C[C@@H]([C@H](O)CC2CC(=O)NC(=O)C2)C(=O)[C@@H](C)C1
active: [3] -0.514 | [4] -0.278 | [7] -0.922 | [8] -0.399 | 25 µM, library screen: screen2, EWS-FLI1 expression: high (no doxycycline) -2.23 | 25 µM, library screen: screen2, EWS-FLI1 expression: low (doxycycline-induced shRNA knockdown) -1.54

CNc1ccc2oc(C[C@@H]3OC4(CC[C@@H]3C)O[C@H](C(C)C(=O)c3ccc[nH]3)[C@H](C)C[C@H]4C)nc2c1C(=O)O (some centres undefined)
active: [5] -0.082 | [7] -0.175
inactive: [1] 0.111 | [2] 0.0323 | [6] 0.0959 | [3] -0.0263 | [4] -1.11 | [8] 0.1

CC(C)(C)c1cc(C=C(C#N)C#N)cc(C(C)(C)C)c1O
active: [3] -1.1 | [9] -3.7 | 25 µM, library screen: screen1, EWS-FLI1 expression: low (doxycycline-induced shRNA knockdown) -2.45

O=C(O)c1nn(Cc2ccc(Cl)cc2Cl)c2ccccc12
inactive: [1] 0.228 | [2] 0.122 | [5] 0.112 | [6] 0.137 | [3] 0.215 | [4] 0.0979 | [7] 0.168 | [8] 0.101

CCCCOC(=O)c1ccccc1C(=O)OCCCC
inactive: [1] 0.118 | [2] 0.0394 | [3] 0.0831 | [4] -0.283

COc1ccc2c(c1OC)C(=O)O[C@H]2[C@H]1c2cc3c(cc2CCN1C)OCO3
inactive: [1] 0.11 | [2] 0.0969 | [3] -0.0012 | [4] 0.0503

CC[C@@H](CO)NC(=O)[C@@H]1C=C2c3cccc4[nH]cc(c34)C[C@H]2N(C)C1
inactive: [5] 0.18 | [6] 0.103 | [7] 0.127 | [8] 0.0973

CCOC(=O)c1ncn2c1[C@@H]1CCCN1C(=O)c1cc(OC)ccc1-2
inactive: [5] 0.0615 | [6] 0.0119 | [7] 0.0436 | [8] 0.0121

NC(N)=Nc1ccc2[nH]c3c(c2c1)C[C@@]1(O)[C@H]2Cc4ccc(O)c5c4[C@@]1(CCN2CC1CC1)[C@H]3O5
inactive: [5] 0.0964 | [6] 0.0365 | [7] 0.0323 | [8] 0.0828

C[C@]12CC[C@H]3[C@@H](CCC4=CC(=O)CC[C@@]43C)[C@@H]1CC[C@@H]2OC(=O)CCC1CCCC1
inactive: 0.103 µM, library screen: screen3, EWS-FLI1 expression: high (no doxycycline) -0.000785 | 0.103 µM, library screen: screen3, EWS-FLI1 expression: low (doxycycline-induced shRNA knockdown) 0.011 | 0.308 µM, library screen: screen3, EWS-FLI1 expression: high (no doxycycline) 0.0351 | 0.308 µM, library screen: screen3, EWS-FLI1 expression: low (doxycycline-induced shRNA knockdown) 0.0268 | 0.926 µM, library screen: screen3, EWS-FLI1 expression: high (no doxycycline) 0.0442 | 0.926 µM, library screen: screen3, EWS-FLI1 expression: low (doxycycline-induced shRNA knockdown) 0.0219 | 2.8 µM, library screen: screen3, EWS-FLI1 expression: high (no doxycycline) 0.0558 | 2.8 µM, library screen: screen3, EWS-FLI1 expression: low (doxycycline-induced shRNA knockdown) 0.00975 | 8.3 µM, library screen: screen3, EWS-FLI1 expression: high (no doxycycline) 0.0577 | 8.3 µM, library screen: screen3, EWS-FLI1 expression: low (doxycycline-induced shRNA knockdown) 0.0516 | 25 µM, library screen: screen3, EWS-FLI1 expression: high (no doxycycline) 0.0518 | 25 µM, library screen: screen3, EWS-FLI1 expression: low (doxycycline-induced shRNA knockdown) 0.0747

C/C=C(/C)C(=O)O[C@H]1C(C)=C2[C@H]([C@@H]1OC(=O)CCCCCCC)[C@@](C)(OC(C)=O)C[C@H](OC(=O)CCC)[C@@]1(O)[C@H]2OC(=O)[C@@]1(C)O
active: [5] -3.16 | [6] -2.76 | [7] -3.49 | [8] -2.81

CC[N+]1(C)CCCC(OC(=O)C(O)(c2ccccc2)c2ccccc2)C1 (centres undefined)
inactive: [1] 0.12 | [2] 0.0657 | [3] 0.139 | [4] 0.0957

CCCCCC[C@H]1C(=O)O[C@H](C)[C@H](NC(=O)c2cccc(NC=O)c2O)C(=O)O[C@@H](C)[C@@H]1OC(=O)CC(C)C
active: [1] -0.888 | [2] -0.636 | [3] -1.71 | [4] -0.774

CCCN(CCC)[C@H]1CCc2c(F)ccc(O)c2C1
inactive: [5] 0.127 | [6] 0.127 | [7] 0.109 | [8] 0.143

CCCCSP(=O)(SCCCC)SCCCC
active: [1] -0.12

N#Cc1c(Cl)c(Cl)c(Cl)c(C#N)c1Cl
inactive: [1] -0.0732 | [2] 0.00425 | [4] 0.063
active: [3] -0.219

CC(C)Nc1nc(Cl)nc(NC(C)C)n1
inactive: [1] 0.16 | [2] 0.0964 | [3] 0.156 | [4] 0.183

c1ccc2c(c1)OCC(C1=NCCN1)O2 (centres undefined)
inactive: [5] 0.2 | [6] 0.0971 | [7] 0.109 | [8] 0.0701

CN1C(=O)CN=C(c2ccccc2)c2cc(Cl)ccc21
inactive: [1] 0.0871 | [2] 0.0866 | [3] 0.123 | [4] 0.0545

Cc1cc([C@@H]2CCCN2C)on1
inactive: [5] 0.0967 | [6] 0.135 | [7] 0.0205 | [8] 0.0708
